From EP4603109A1 (Sichuan Kelun-Biotech Biopharmaceutical Co., Ltd., dated 2024)

T1: B7-H3 on human tumor cell lines (HT29, NCI-N87, HCC1806, HCC827, A375) (human, UniProt Q5ZPR3 29-534)
T1 sequence (looked up): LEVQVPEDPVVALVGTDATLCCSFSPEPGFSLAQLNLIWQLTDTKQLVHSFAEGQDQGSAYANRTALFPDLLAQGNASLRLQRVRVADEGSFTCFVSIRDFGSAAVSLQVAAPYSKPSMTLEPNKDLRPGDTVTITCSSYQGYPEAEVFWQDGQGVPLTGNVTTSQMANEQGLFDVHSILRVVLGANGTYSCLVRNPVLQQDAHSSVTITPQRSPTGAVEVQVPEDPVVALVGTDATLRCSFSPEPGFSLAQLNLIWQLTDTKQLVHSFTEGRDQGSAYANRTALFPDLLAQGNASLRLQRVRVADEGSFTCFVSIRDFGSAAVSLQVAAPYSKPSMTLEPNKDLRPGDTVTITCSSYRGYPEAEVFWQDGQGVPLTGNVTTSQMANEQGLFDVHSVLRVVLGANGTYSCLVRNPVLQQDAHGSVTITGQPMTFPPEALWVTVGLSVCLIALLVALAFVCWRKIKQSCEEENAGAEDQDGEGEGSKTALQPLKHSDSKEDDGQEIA

T2: B7-H3 on Calu6-B7-H3 and U87MG-B7-H3 cells
T2 sequence (Q5ZPR3 1-534, species assumed, looked up): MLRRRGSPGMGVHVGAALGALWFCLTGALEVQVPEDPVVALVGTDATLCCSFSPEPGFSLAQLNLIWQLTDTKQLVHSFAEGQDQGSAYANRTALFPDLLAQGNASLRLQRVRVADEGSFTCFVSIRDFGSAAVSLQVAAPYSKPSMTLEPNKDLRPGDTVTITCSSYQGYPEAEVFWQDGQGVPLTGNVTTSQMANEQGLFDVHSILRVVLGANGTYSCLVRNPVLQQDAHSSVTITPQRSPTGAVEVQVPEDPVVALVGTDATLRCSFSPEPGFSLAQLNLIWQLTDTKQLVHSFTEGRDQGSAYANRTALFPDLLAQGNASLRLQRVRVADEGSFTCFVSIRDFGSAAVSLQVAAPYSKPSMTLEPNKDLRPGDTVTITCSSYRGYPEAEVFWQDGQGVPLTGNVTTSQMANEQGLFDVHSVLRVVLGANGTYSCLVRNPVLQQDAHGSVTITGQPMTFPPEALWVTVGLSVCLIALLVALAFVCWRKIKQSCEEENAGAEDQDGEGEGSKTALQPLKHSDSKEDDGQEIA

T3: rat B7-H3 on CHO-S cells (rat, UniProt Q7TPB4 29-316)
T3 construct: whole, on cells; also called CHO-S-rat B7-H3; CHOS-rat B7-H3
T3 sequence (looked up): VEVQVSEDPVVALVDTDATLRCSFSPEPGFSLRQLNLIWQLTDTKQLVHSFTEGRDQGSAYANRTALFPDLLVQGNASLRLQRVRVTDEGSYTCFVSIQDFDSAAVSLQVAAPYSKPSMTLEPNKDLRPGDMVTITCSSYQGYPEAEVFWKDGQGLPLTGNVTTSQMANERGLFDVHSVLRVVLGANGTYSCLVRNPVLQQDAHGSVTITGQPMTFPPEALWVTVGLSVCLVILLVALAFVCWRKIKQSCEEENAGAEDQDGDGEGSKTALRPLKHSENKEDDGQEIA

T4: human B7-H3-4Ig on CHO-S cells (human, UniProt Q5ZPR3 29-534)
T4 construct: whole, on cells; also called CHO-S-human B7-H3-4Ig; CHOS-human B7-H3-4Ig
T4 sequence (looked up): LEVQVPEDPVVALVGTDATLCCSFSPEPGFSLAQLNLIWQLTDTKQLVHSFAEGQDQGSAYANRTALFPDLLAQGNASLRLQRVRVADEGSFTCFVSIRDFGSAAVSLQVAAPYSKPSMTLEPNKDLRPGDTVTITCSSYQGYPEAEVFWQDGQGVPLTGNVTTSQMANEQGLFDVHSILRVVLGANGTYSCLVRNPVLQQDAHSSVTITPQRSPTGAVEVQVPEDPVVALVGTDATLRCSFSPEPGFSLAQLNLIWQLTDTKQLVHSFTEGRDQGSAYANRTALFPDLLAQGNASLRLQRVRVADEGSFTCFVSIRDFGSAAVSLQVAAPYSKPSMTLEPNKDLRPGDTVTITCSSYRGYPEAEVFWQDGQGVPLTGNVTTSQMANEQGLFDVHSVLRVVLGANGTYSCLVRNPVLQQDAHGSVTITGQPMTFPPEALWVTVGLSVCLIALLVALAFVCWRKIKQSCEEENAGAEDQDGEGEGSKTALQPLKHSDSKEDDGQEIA

T5: rat B7-H3-his protein (rat, UniProt Q7TPB4 29-248, limits assumed)
T5 construct: not shown: His tag
T5 sequence (looked up): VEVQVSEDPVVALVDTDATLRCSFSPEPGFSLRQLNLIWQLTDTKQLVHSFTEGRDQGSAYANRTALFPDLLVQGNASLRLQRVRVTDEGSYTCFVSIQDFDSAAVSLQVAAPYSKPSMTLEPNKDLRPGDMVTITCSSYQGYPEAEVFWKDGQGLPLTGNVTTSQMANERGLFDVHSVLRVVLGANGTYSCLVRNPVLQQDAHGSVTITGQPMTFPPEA

T6: human Fc receptor protein CD32a (human, UniProt P12318 36-218, limits assumed, biotinylated (sites not given))
T6 construct: Biotinylated protein captured on SA sensor
T6 sequence (looked up): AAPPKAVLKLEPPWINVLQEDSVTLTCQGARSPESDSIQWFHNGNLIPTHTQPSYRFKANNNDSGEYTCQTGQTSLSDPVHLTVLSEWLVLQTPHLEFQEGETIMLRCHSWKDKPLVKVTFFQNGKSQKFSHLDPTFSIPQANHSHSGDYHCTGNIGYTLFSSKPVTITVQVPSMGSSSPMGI

T7: human B7-H3-2Ig-his protein (human, UniProt Q5ZPR3-2 29-245, limits assumed)
T7 construct: the 2Ig form is its isoform 2; not shown: His tag
T7 sequence (looked up): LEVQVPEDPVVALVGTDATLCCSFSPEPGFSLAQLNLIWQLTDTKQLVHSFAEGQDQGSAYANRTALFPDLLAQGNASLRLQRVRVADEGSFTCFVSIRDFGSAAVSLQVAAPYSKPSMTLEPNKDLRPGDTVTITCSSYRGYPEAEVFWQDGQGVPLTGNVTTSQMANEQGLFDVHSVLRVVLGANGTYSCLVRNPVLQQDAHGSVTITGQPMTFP

T8: human B7-H3-4Ig-his protein (human, UniProt Q5ZPR3 29-461, limits assumed)
T8 construct: not shown: His tag
T8 sequence (looked up): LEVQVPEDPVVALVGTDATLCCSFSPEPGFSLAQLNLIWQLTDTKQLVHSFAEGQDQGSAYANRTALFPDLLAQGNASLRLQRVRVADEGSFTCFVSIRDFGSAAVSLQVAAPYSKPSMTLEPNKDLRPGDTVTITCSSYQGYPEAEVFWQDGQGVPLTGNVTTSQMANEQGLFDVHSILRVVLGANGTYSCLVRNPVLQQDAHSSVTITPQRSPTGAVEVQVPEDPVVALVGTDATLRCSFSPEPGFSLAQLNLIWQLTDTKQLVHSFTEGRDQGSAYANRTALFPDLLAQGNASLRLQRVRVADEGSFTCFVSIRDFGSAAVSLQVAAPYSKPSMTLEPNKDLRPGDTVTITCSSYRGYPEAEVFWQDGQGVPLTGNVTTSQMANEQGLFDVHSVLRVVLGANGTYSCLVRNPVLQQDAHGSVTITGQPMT


Assays:
[1] = biological target: T1, B7-H3 on human tumor cell lines (HT29, …); experiment: cell-based or functional assay
[2] = biological target: T2, B7-H3 on Calu6-B7-H3 and U87MG-B7-H3 …; experiment: cell-based or functional assay
[3] = biological target: T1, B7-H3 on human tumor cell lines (HT29, …); experiment: flow cytometry on HT29 cells
[4] = biological target: T1, B7-H3 on human tumor cell lines (HT29, …); experiment: flow cytometry on HCC827 cells
[5] = biological target: T1, B7-H3 on human tumor cell lines (HT29, …); experiment: flow cytometry on HCC1806 cells
[6] = biological target: T1, B7-H3 on human tumor cell lines (HT29, …); experiment: flow cytometry on NCI-N87 cells
rat B7-H3 on CHO-S cells = biological target: T3, rat B7-H3 on CHO-S cells; experiment: flow cytometry on CHOS-rat B7-H3 cells
[7] = biological target: T4, human B7-H3-4Ig on CHO-S cells; experiment: flow cytometry on CHOS-human B7-H3-4Ig cells
rat B7-H3-his protein = biological target: T5, rat B7-H3-his protein; experiment: BLI (ForteBio), ADC captured on Protein A sensor
[8] = biological target: T6, human Fc receptor protein CD32a; experiment: BLI (ForteBio), biotinylated receptor on SA sensor
[9] = biological target: T7, human B7-H3-2Ig-his protein; experiment: BLI (ForteBio), ADC on Protein A sensor, antigen 200-3.125 nM, 1:1 global fit
[10] = biological target: T8, human B7-H3-4Ig-his protein; experiment: as above
human FcRn = biological target: T9, human FcRn (human, UniProt P55899 part only, biotinylated (sites not given)); experiment: BLI (ForteBio), biotinylated FcRn on SA sensor, ADC from 5000 nM, 1:1 global fit
human FcRn, sequence (P55899 24-297 limits assumed, form in doubt): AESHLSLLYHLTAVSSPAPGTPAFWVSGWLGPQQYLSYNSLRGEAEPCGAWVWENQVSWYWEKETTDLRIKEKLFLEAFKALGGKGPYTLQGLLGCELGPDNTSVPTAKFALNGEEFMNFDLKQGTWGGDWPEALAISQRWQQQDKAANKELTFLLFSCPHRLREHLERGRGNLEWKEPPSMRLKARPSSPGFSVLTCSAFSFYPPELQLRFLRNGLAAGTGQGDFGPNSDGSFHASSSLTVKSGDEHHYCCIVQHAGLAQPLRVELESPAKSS
T9 construct: Biotinylated protein captured on SA sensor

Binder	IC50 (nM), in vitro cytotoxicity on A375 cells (CCK8) [1] [nM]	IC50 (nM), in vitro cytotoxicity on Calu6-B7-H3 cells (CCK8) [2] [nM]	IC50 (nM), in vitro cytotoxicity on U87MG-B7-H3 cells (CCK8) [2] [nM]	EC50 [3] [ng/mL]	EC50 [4] [ng/mL]	EC50 [5] [ng/mL]	EC50 [6] [ng/mL]	binding result (rat B7-H3 on CHO-S cells)	EC50 [7] [ng/mL]	binding result (rat B7-H3-his protein)	binding result [8]	Kd [9] [nM]	Kd [10] [nM]	Kd (human FcRn) [nM]
ADC 5 (2#8890-A-05, DAR 8) (antibody, human IgG1, kappa, cysteine sulfhydryls carry drug-linker A-05 (sites not stated; DAR 7.90 per antibody)) heavy: QVQLQESGPGLVQPSGTLSLTCAVSGGSDSSTNWWTWVRQSPGQGLEWIGEISPIGFTSYSPSLRSRVTISVDKSKTQFSLKLSSVTAADTAVYYCARDRLYFAFWGQGTLVTVSSASTKGPSVFPLAPSSKSTSGGTAALGCLVKDYFPEPVTVSWNSGALTSGVHTFPAVLQSSGLYSLSSVVTVPSSSLGTQTYICNVNHKPSNTKVDKKV[human IgG1 Fc with L234A L235A G237A (EU numbers) left out here] light: EIVMTQSPATLSVSPGERATLSCRASQSVSSNLAWYQQKPGQAPRLLIYGASTRATGIPDRFSGSGSGTEFTLTISSLESEDFAVYYCQQYNNWPITFGQGTRLEIKRTVAAPSVFIFPPSDEQLKSGTASVVCLLNNFYPREAKVQWKVDNALQSGNSQESVTEQDSKDSTYSLSSTLTLSKADYEKHKVYACEVTHQGLSSPVTKSFNRGEC	0.475	0.253	0.0865	2.33	7.58	3.13	2.33	no binding (tested: 10 ug/ml (highest concentration))	41.5	no binding (tested: 200 nM (highest antigen concentration))	no binding (tested: 5000 nM (highest concentration))	23.4	0.588	14.5
ADC 9 (2#8890-A-14, DAR 8) (antibody, human IgG1, kappa, cysteine sulfhydryls carry drug-linker A-14 (sites not stated; DAR 7.22 per antibody)) heavy: QVQLQESGPGLVQPSGTLSLTCAVSGGSDSSTNWWTWVRQSPGQGLEWIGEISPIGFTSYSPSLRSRVTISVDKSKTQFSLKLSSVTAADTAVYYCARDRLYFAFWGQGTLVTVSSASTKGPSVFPLAPSSKSTSGGTAALGCLVKDYFPEPVTVSWNSGALTSGVHTFPAVLQSSGLYSLSSVVTVPSSSLGTQTYICNVNHKPSNTKVDKKV[human IgG1 Fc with L234A L235A G237A (EU numbers) left out here] light: EIVMTQSPATLSVSPGERATLSCRASQSVSSNLAWYQQKPGQAPRLLIYGASTRATGIPDRFSGSGSGTEFTLTISSLESEDFAVYYCQQYNNWPITFGQGTRLEIKRTVAAPSVFIFPPSDEQLKSGTASVVCLLNNFYPREAKVQWKVDNALQSGNSQESVTEQDSKDSTYSLSSTLTLSKADYEKHKVYACEVTHQGLSSPVTKSFNRGEC	2.64	0.328	0.0975	5.66	13.1	7.26	5.95	no binding (tested: 10 ug/ml (highest concentration))	46	no binding (tested: 200 nM (highest antigen concentration))	no binding (tested: 5000 nM (highest concentration))	23	0.412	15
ADC 3 (2#8890-M-01, DAR 4) (antibody, human IgG1, kappa, cysteine sulfhydryls carry drug-linker M-01 (sites not stated; DAR 3.89 per antibody)) heavy: QVQLQESGPGLVQPSGTLSLTCAVSGGSDSSTNWWTWVRQSPGQGLEWIGEISPIGFTSYSPSLRSRVTISVDKSKTQFSLKLSSVTAADTAVYYCARDRLYFAFWGQGTLVTVSSASTKGPSVFPLAPSSKSTSGGTAALGCLVKDYFPEPVTVSWNSGALTSGVHTFPAVLQSSGLYSLSSVVTVPSSSLGTQTYICNVNHKPSNTKVDKKV[human IgG1 Fc with L234A L235A G237A (EU numbers) left out here] light: EIVMTQSPATLSVSPGERATLSCRASQSVSSNLAWYQQKPGQAPRLLIYGASTRATGIPDRFSGSGSGTEFTLTISSLESEDFAVYYCQQYNNWPITFGQGTRLEIKRTVAAPSVFIFPPSDEQLKSGTASVVCLLNNFYPREAKVQWKVDNALQSGNSQESVTEQDSKDSTYSLSSTLTLSKADYEKHKVYACEVTHQGLSSPVTKSFNRGEC														15.1
ADC 11 (2#8890-B-01, DAR 8) (antibody, human IgG1, kappa, cysteine sulfhydryls carry drug-linker B-01 (sites not stated; DAR 7.75 per antibody)) heavy: QVQLQESGPGLVQPSGTLSLTCAVSGGSDSSTNWWTWVRQSPGQGLEWIGEISPIGFTSYSPSLRSRVTISVDKSKTQFSLKLSSVTAADTAVYYCARDRLYFAFWGQGTLVTVSSASTKGPSVFPLAPSSKSTSGGTAALGCLVKDYFPEPVTVSWNSGALTSGVHTFPAVLQSSGLYSLSSVVTVPSSSLGTQTYICNVNHKPSNTKVDKKV[human IgG1 Fc with L234A L235A G237A (EU numbers) left out here] light: EIVMTQSPATLSVSPGERATLSCRASQSVSSNLAWYQQKPGQAPRLLIYGASTRATGIPDRFSGSGSGTEFTLTISSLESEDFAVYYCQQYNNWPITFGQGTRLEIKRTVAAPSVFIFPPSDEQLKSGTASVVCLLNNFYPREAKVQWKVDNALQSGNSQESVTEQDSKDSTYSLSSTLTLSKADYEKHKVYACEVTHQGLSSPVTKSFNRGEC														10.7
